Measured values published in the supplement of paper PMC9446081.
Hit rate of the full screen: of about 39,000 compounds, about 220 (0.56%) showed activity. Some of the results follow.

Each compound was assayed on Escherichia coli K-12 BW25113 (assay: relative growth (OD600 normalised to plate interquartile mean) (fraction); higher = less growth inhibition, active = 0.2 or less). Conditions: 50 µM; LB; incubation time: overnight (16-24 h).
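Also: static incubation at 37 °C against the wild-type strain, values averaged over two biological replicates.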

SMILES	relative growth
CN(C)CC(=O)N[C@@H]1CC[C@@H](CC(=O)O)O[C@H]1CO	inactive: 1
CNCCCC12CCC(c3ccccc31)c1ccccc12.Cl	inactive: 0.874
C[C@@H]1CCCCO[C@H](CN(C)C(=O)Nc2ccc(C(F)(F)F)cc2)[C@H](C)CN([C@@H](C)CO)C(=O)c2cc(NS(=O)(=O)c3ccc(Cl)cc3)ccc2O1	inactive: 1
C[C@@H]1CN([C@H](C)CO)C(=O)c2cc(NS(C)(=O)=O)ccc2O[C@@H](C)CCCCO[C@@H]1CN(C)S(=O)(=O)c1ccccc1	inactive: 1.02
Cn1c(=O)cc(N2CCC[C@@H](N)C2)n(Cc2ccccc2C#N)c1=O	inactive: 1
COc1ccc(NC(=O)N(C)C[C@H]2OCCCC[C@@H](C)Oc3ccc(NC(=O)Nc4cccc5ccccc45)cc3C(=O)N([C@H](C)CO)C[C@@H]2C)cc1	inactive: 0.989
CN1C(=O)c2cc(NC(=O)c3ccc(F)c(F)c3)ccc2OC[C@@H]2O[C@@H](CC(=O)N3CCOCC3)CC[C@H]21	inactive: 0.97
COCC(=O)N(C)C[C@H]1Oc2cc(C#C[C@@H](C)O)ccc2S(=O)(=O)N([C@H](C)CO)C[C@H]1C	inactive: 0.985
C[C@H]1CN([C@@H](C)CO)C(=O)c2cccc(NC(=O)c3ccc(-c4nccs4)cc3)c2O[C@H]1CN(C)C(=O)Nc1ccc(C(F)(F)F)cc1	inactive: 0.984
C[C@@H]1CCCCO[C@H](CN(C)C(=O)Nc2ccc(C(F)(F)F)cc2)[C@@H](C)CN([C@H](C)CO)C(=O)c2cc(N(C)C)ccc2O1	inactive: 0.969
C[C@@H]1CN([C@@H](C)CO)S(=O)(=O)c2ccc(C#C[C@@H](C)O)cc2O[C@H]1CN(C)C(=O)c1ccccc1	inactive: 1.02
CO[C@@H]1CN(C)C(=O)c2ccc(NC(=O)Nc3ccccc3F)cc2OC[C@@H](C)N(Cc2ccccc2C(=O)O)C[C@H]1C	inactive: 1.03
C[C@@H]1CN([C@@H](C)CO)S(=O)(=O)c2ccc(Br)cc2O[C@@H]1CN(C)C(=O)c1ccccn1	inactive: 0.991
C[C@H]1CN([C@@H](C)CO)C(=O)Cc2cc(NC(=O)Cc3ccccc3)ccc2O[C@@H]1CN(C)S(=O)(=O)c1ccc(F)cc1	inactive: 1.02
O=C1NC(=O)C2(CCCCC2)N1	inactive: 0.933
C[C@@H]1CCCCO[C@@H](CN(C)C(=O)c2ccccc2)[C@@H](C)CN([C@@H](C)CO)C(=O)c2cc(NC(=O)Cc3ccccc3)ccc2O1	inactive: 1.02
C[C@@H]1CN([C@H](C)CO)S(=O)(=O)c2ccc(C#Cc3ccc(F)cc3)cc2O[C@@H]1CN(C)S(=O)(=O)c1cn(C)cn1	inactive: 1.02
Cc1ccc(S[C@]2(C(=O)NC3CC3)CC(=O)N(Cc3ccccc3C(F)(F)F)[C@@H]2c2ccc(CO)cc2)cc1	inactive: 1.01
CCCN(C)C[C@@H]1OCCCC[C@H](C)Oc2ccc(NC(=O)C3CCCCC3)cc2C(=O)N([C@H](C)CO)C[C@@H]1C	inactive: 0.973
CC(=O)NS(=O)(=O)c1ccc(N)cc1	inactive: 1.12
Cc1noc(C)c1NC(=O)N(C)C[C@H]1Oc2cc(C#CCN(C)C)ccc2S(=O)(=O)N([C@@H](C)CO)C[C@@H]1C	inactive: 0.979

SMILES	relative growth
Cc1[nH]c(=O)[nH]c(=O)c1S(=O)(=O)N1CCN(c2ccccc2)CC1	inactive: 0.795
CCNC(=O)C[C@@H]1C=C[C@H](NC(=O)C2CC2)[C@@H](CO)O1	inactive: 0.897
C[C@@H]1CCCCO[C@@H](CN(C)C(=O)Nc2ccccc2)[C@H](C)CN([C@H](C)CO)C(=O)c2cc(NC(=O)CCC(F)(F)F)ccc2O1	inactive: 1
C[C@@H]1CN([C@@H](C)CO)C(=O)Cc2cc(NC(=O)C3CCCCC3)ccc2O[C@@H]1CN(C)Cc1ccc(C(F)(F)F)cc1	inactive: 1.03
C[C@@H]1CN([C@@H](C)CO)C(=O)Cc2cc(NC(=O)Cn3cnnn3)ccc2O[C@@H]1CN(C)S(=O)(=O)c1ccc(F)cc1	inactive: 0.977
C[C@@H]1CN([C@H](C)CO)S(=O)(=O)c2ccc(C#C[C@@H](C)O)cc2O[C@@H]1CN(C)C(=O)c1ccncc1	inactive: 1.01
COCC#Cc1cnc2c(c1)C(=O)N([C@H](C)CO)C[C@@H](C)[C@@H](CN(C)C(=O)Nc1cc(F)ccc1F)O2	inactive: 0.985
C[C@H]1CN([C@@H](C)CO)C(=O)c2cc(NC(=O)Nc3ccc4c(c3)OCO4)ccc2O[C@H]1CN(C)C(=O)Nc1ccc(C(F)(F)F)cc1	inactive: 0.997
C[C@@H]1CN([C@@H](C)CO)C(=O)c2cccc(NC(=O)Nc3ccc(F)cc3)c2O[C@H]1CN(C)CC1CCCCC1	inactive: 0.919
CN1C(CCl)Nc2cc(Cl)c(S(N)(=O)=O)cc2S1(=O)=O (stereo unspecified)	inactive: 0.971
CO[C@H]1CN(C)C(=O)c2ccc(NS(C)(=O)=O)cc2OC[C@@H](C)N(C(=O)C2CCOCC2)C[C@H]1C	inactive: 1.02
C[C@H]1CN([C@@H](C)CO)C(=O)c2cc(NC(=O)C3CC3)ccc2O[C@@H]1CN(C)C(=O)NC1CCCCC1	inactive: 1.02
COc1ccc(NC(=O)N(C)C[C@@H]2OCCCC[C@H](C)Oc3ccc(NC(=O)CCC(F)(F)F)cc3C(=O)N([C@@H](C)CO)C[C@@H]2C)cc1	inactive: 1
COc1ccccc1S(=O)(=O)N[C@H]1C=C[C@H](CC(=O)N2CCOCC2)O[C@@H]1CO	inactive: 0.979
C[C@@H]1CN([C@@H](C)CO)C(=O)c2cccc(NC(=O)Nc3ccc(C(F)(F)F)cc3)c2O[C@@H]1CN(C)Cc1ccncc1	inactive: 0.937
C[C@@H]1CCCCO[C@H](CN(C)S(=O)(=O)c2ccc(Cl)cc2)[C@@H](C)CN([C@@H](C)CO)C(=O)c2cc(NS(=O)(=O)c3ccccc3)ccc2O1	inactive: 1.02
Cc1ccc(S(=O)(=O)Nc2cccc3c2O[C@@H](CN(C)Cc2ccc(Cl)c(Cl)c2)[C@H](C)CN([C@H](C)CO)C3=O)cc1	inactive: 1.03
CC/C(=C\C(=O)O)c1ccccc1	inactive: 0.987
Cc1ncc([N+](=O)[O-])n1C[C@@H](CN1CCOCC1)OP(=O)(O)O	inactive: 1.01
CC(C)(C)NCC(O)c1cc(O)cc(O)c1.O=S(=O)(O)O (stereo unspecified)	inactive: 0.965
Cc1cc(C)nc(NS(=O)(=O)c2ccc(NC(=O)c3cccn(OCc4ccc(F)cc4)c3=O)cc2)n1	inactive: 1.04

SMILES	relative growth
Cc1ccc(S(=O)(=O)N(C)C[C@@H]2OCCCC[C@@H](C)Oc3ccc(NC(=O)Nc4ccc(F)cc4)cc3C(=O)N([C@H](C)CO)C[C@H]2C)cc1	inactive: 1.03
C[C@@H]1CN([C@H](C)CO)C(=O)c2cc(NS(=O)(=O)c3cccs3)ccc2O[C@@H](C)CCCCO[C@@H]1CN(C)Cc1ccc2c(c1)OCO2	inactive: 0.999
CC(C)CC#Cc1ccc2c(c1)O[C@H](CN(C)C(=O)Cc1cccnc1)[C@H](C)CN([C@@H](C)CO)S2(=O)=O	inactive: 0.999
C[C@H](CO)N1C[C@H](C)[C@@H](CN(C)C(=O)c2cnccn2)Oc2cc(C#CCC3CCCC3)ccc2S1(=O)=O	inactive: 1.03
COc1ccc(CNC(=O)c2cc3c(c(-c4cccc(-c5cccc(C#N)c5)c4)n2)[C@H](CCO)N([S@@](=O)C(C)(C)C)C3)cc1	inactive: 0.984
C[C@H](CO)N1C[C@H](C)[C@H](CN(C)Cc2ccc(-c3ccccc3)cc2)Oc2c(NC(=O)Nc3ccc(F)cc3)cccc2C1=O	inactive: 1.02
COC(=O)[C@@H]1[C@@H](CO)[C@@H]2Cn3c(ccc(-c4ccccc4)c3=O)[C@@H]2N1S(C)(=O)=O	inactive: 0.982
Cc1ccc(S(=O)(=O)Nc2ccc3c(c2)C(=O)N([C@@H](C)CO)C[C@@H](C)[C@H](CN(C)S(=O)(=O)c2ccc(F)cc2)OCCCC[C@H](C)O3)cc1	inactive: 1.05
C[C@H](CO)N1C[C@H](C)[C@H](CN(C)Cc2ccc(C(=O)O)cc2)Oc2ccc(NC(=O)c3ccncc3)cc2CC1=O	inactive: 0.985
CCCCCCCCCCCCCCCC(=O)O[C@@H]1[C@@H](O)[C@@H](O)[C@@H]([C@H](NC(=O)[C@@H]2C[C@@H](CCC)CN2C)[C@H](C)Cl)O[C@@H]1SC	inactive: 1.01
C[C@@]1(c2ccc3c(c2)OCCO3)NC(=O)NC1=O	inactive: 1
CC(C)(C)[S@](=O)N1Cc2cc(C(=O)NCc3ccccc3F)nc(-c3cccc(-c4cccnc4)c3)c2[C@@H]1CCO	inactive: 0.977
C[C@@H]1CN([C@@H](C)CO)C(=O)Cc2cc(NC(=O)Nc3ccc4c(c3)OCO4)ccc2O[C@@H]1CN(C)S(=O)(=O)c1cn(C)cn1	inactive: 1
O=C(NCCCN1CCOCC1)[C@H]1[C@H](CO)[C@H]2Cn3c(cccc3=O)[C@@H]1N2C(=O)C1CCCC1	inactive: 1
Cc1noc(C)c1S(=O)(=O)Nc1ccc2c(c1)CC(=O)N([C@@H](C)CO)C[C@@H](C)[C@H](CN(C)C(=O)Nc1ccc3c(c1)OCO3)O2	inactive: 1.02
C[C@H](CO)N1C[C@H](C)[C@H](CN(C)Cc2ccccn2)Oc2cc(C#CCN(C)C)ccc2S1(=O)=O	inactive: 1
Cc1ccc(NC(=O)[C@H]2CCCN(C(=O)c3c(C)cccc3F)[C@H]2c2ccc(NC3CCCC3)cc2)cc1C(F)(F)F	inactive: 1.03
CC(O)C1C(=O)N2C(C(=O)[O-])=C(SC3Cn4cnc[n+]4C3)C(C)C12 (stereo unspecified)	inactive: 0.307
CN1C(=O)c2cc(NC(=O)C3CCOCC3)ccc2OC[C@H]2O[C@H](CC(=O)NCc3ccccc3F)CC[C@@H]21	inactive: 1.05
